Results as given in a compilation of properties of binary mixtures (doi:10.1016/j.jct.2022.106742).
The densities may have been worked out from excess volumes.

Assay: xn = mol fraction of the nth substance listed
Conditions: 100 kPa

With `CCO` + CC[n+]1ccn(C)c1.O=S(=O)([O-])C(F)(F)F the mass density (298.15 K, x2 = 0) was 786.1 kg/m3 and the mass density (303.15 K, x2 = 0) was 781.9 kg/m3.
With `CC[n+]1ccn(C)c1.O=S(=O)([O-])C(F)(F)F` + CCO the mass density (298.15 K, x1 = 0.0516) was 878.6 kg/m3, the mass density (298.15 K, x1 = 0.2004) was 1058.6 kg/m3 and the mass density (298.15 K, x1 = 0.2936) was 1133.4 kg/m3. The mass density (298.15 K, x1 = 0.3991) was 1197.9 kg/m3, the mass density (298.15 K, x1 = 0.4994) was 1245.8 kg/m3 and the mass density (298.15 K, x1 = 0.6992) was 1315.5 kg/m3. The mass density (298.15 K, x1 = 0.8994) was 1363.1 kg/m3, the mass density (298.15 K, x1 = 0.9499) was 1372.9 kg/m3 and the mass density (303.15 K, x1 = 0.0516) was 874.2 kg/m3. The mass density (303.15 K, x1 = 0.2004) was 1054.3 kg/m3, the mass density (303.15 K, x1 = 0.2936) was 1129.3 kg/m3 and the mass density (303.15 K, x1 = 0.3991) was 1193.5 kg/m3. The mass density (303.15 K, x1 = 0.4994) was 1241 kg/m3, the mass density (303.15 K, x1 = 0.7899) was 1333.8 kg/m3 and the mass density (303.15 K, x1 = 0.9499) was 1367.4 kg/m3. For the same compound, the mass density (303.15 K, x1 = 1) was 1376.3 kg/m3, the mass density (308.15 K, x1 = 0.0516) was 869.7 kg/m3 and the mass density (308.15 K, x1 = 0.1001) was 939.9 kg/m3. It also gave a mass density (308.15 K, x1 = 0.2004) of 1049.8 kg/m3, a mass density (308.15 K, x1 = 0.2936) of 1124.8 kg/m3 and a mass density (308.15 K, x1 = 0.3991) of 1189.3 kg/m3. For the same compound, the mass density (308.15 K, x1 = 0.4994) was 1236.8 kg/m3, the mass density (308.15 K, x1 = 0.6018) was 1276 kg/m3 and the mass density (308.15 K, x1 = 0.7899) was 1329.7 kg/m3. For the same compound, the mass density (308.15 K, x1 = 0.8994) was 1353.7 kg/m3 and the mass density (308.15 K, x1 = 1) was 1372.2 kg/m3.
